Test results published in the supplement of paper PMC10338343.
± gives the standard deviation. Over roughly 5,500 sequences, “pre-steady-state target cleavage rate” has its median near 0.1; the highest 2% begin near 0.64. The list shows a part of the results, in another mix than the full data.

tested on: MIWI (PIWIL1) piRISC loaded with piRNA #2 (30 nt); test: pre-steady-state target cleavage rate (min^-1); MIWI and MILI are mouse PIWI proteins and EfPiwi is from a freshwater sponge; tags in brackets are library labels; higher = faster piRNA-guided slicing of the target; details: guide: piRNA #2 5'p-UUAGGUAACCCAGUAGAUCCAGAGGAAUUC; auxiliary factor: 500 nM mouse GTSF1
Summary of the method: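 For Cleave-'n-Seq, a transcribed, DNA-blocked target RNA library […] met 1 nM active affinity-purified piRISC with one synthetic guide at 33 °C for 0–8 or 0–960 min in HEPES–potassium acetate buffer, with or without 500 nM GTSF1 partner protein. Uncleaved targets were sequenced and normalised to depth and weakly complementary targets, with three trials pooled and k3 capped at 0.0001 min^-1. A burst-and-steady-state fit supplied the pre-steady-state cleavage rate.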

Sequence | pre-steady-state target cleavage rate
CUUAACCUCUGCAUCUACUGGGUUACCUAA | 0.302 ± 0.026
CUUAAGGUCAGGAUCUACUGGGUUACCAAA | 0.0207 ± 0.009
GAAUUCCUCUGGAUCUACUGGGUUACGUUA | 0.425 ± 0.047
CUUAAGCUCUGGAUCUAUGGGUUACCUAA | 0.00603 ± 0.0032
GAAUUCCUCUGGAUCUUACUGGGUUACCUAA | 0.00516 ± 0.0036
CUUAAGGAGAGGAUCUACUGGGUUACCUAAA | 0.0413 ± 0.011
CUUAUGCUCUGGAUCUACUGGGUAACCUAA | 0.0806 ± 0.014
CUUAUCCUCUGGAUCUACUGCGUUAGCUAA | 0.21 ± 0.081
GAAUUCCUCUGGAUGUACUGGGAUACCUAA | 0.155 ± 0.03
CUUAAGGAGACGAUCUACUGGGUUACCUAA [g2:g19:cont:t1A] | 0.00528 ± 0.0031
CUUAAGGUCUCGAUCUACUGGGUUACCUUA | 0.0285 ± 0.0081
CUUUUCCUCUGGAUCUACUGGGAUUCCUAA | 0.087 ± 0.033
CUUAAGCUCUGGAUCUGCUGGGUUACCUAA | 0.0696 ± 0.01
GAAUUCCAGAGGAUCUACUGGGUUACCUAA | 0.273 ± 0.042
CUUAUCCUCUGGAUCUACUGGGUUACUAA | 0.179 ± 0.04
CUAUUCCUCUGGAUCUACUGCCAUACCUAA | 0.00393 ± 0.0037
CUUAAGCUCUGGAUCUACUGGGGUACCUAA | 0.0144 ± 0.0056
CUAUUCGACUGGAUCUACUGGGUUACCUAA | 0.332 ± 0.058
CUUUUCCUCUUGGAUCUACUGGGUUACCUAA | 0.346 ± 0.033
GAUUUCCUCUGGAUCUACUGGGAUACCUAA | 0.115 ± 0.025
CUUAACCUCUGGAUCAACUGGGUUACGUAA | 0.34 ± 0.024
CUUAAGGAGACCUUCAACUCGGUUACCUAA | < 0.0001
CUAUUCCUCUGGAUCUAGUGGGUUACCUAA | 0.203 ± 0.027
CUUAAGCUCUGGAUCUACUGGGUUUGCUAA | 0.176 ± 0.023

Sequence | pre-steady-state target cleavage rate
CUUAUCCUCUGGAUCUACUGGGUUACCGAA | 0.386 ± 0.082
CUAUUCCUCAGGAUCUACUGGGUUACCUUA | 0.513 ± 0.062
CUUAUCCUCUGGAUCAUACUGGGUUACCUAA | 0.00729 ± 0.0036
GAAUUCCUCUGGAUCUACUGGGUAACCUAA | 0.179 ± 0.04
CUUAAGGUCUGGUUCUACUGGGUUACCUAA | 0.2 ± 0.023
CUUAACCGCUGGAUCUACUGGGUUACCUAA | 0.274 ± 0.027
CUUUUCCUCUGGAACUACUCGGUUACCUAA | 0.1 ± 0.013
CUAGUUCCUCUGGAUCUACUGGGUUACCUAA | 0.139 ± 0.037
CUUAACCUCUGGAUCUACUGGGUAUACCUAA | 0.155 ± 0.015
CUUAACGUCUGGAUCUACUGCGUUACCUAA | 0.344 ± 0.025
CAAUUCCUCUGGAUCUACUGGGAUAGCUAA | 0.185 ± 0.074
GAAUUCCUCUGGCUCUACUGGGUUACCUAA | 0.586 ± 0.038
CUAUUCCUCUGGAUCUAGUGGCUUACCUAA | 0.00791 ± 0.004
CUUUUCCACAGGAUCUACUGGGUUACCUAA | 0.324 ± 0.048
CUUAACCACUGGAUCUACUGGGUUACCUAA | 0.37 ± 0.04
CUAUUCCUCUGGAUCUAUUGGGUUACCUAA | 0.288 ± 0.038
GAAUUCCUCUGGAUCUACGGGUUACCUAA | 0.0629 ± 0.012
CUAUUGCUCUGGAUCUACUGGGUAACCUAA | 0.0644 ± 0.014
GAAUUCGUCUGGAUCUUCUGGGUUACCUAA | 0.225 ± 0.043
CUUAUGGACUGGAUCUACUGGGUUACCUAA | 0.235 ± 0.056
GAAUUCCACUGGAUCUACUGGGUUUCCUAA | 0.453 ± 0.087
CUUUUCCUCUGGAACUACUGGGUUAGCUAA | 0.318 ± 0.037
GAAUUCCUCUGGAUCUACUGCCUUACCUAA | 0.0725 ± 0.015
GAAUUCCUCUGGAUCAACUGGGUUACGUAA | 0.497 ± 0.043

Sequence | pre-steady-state target cleavage rate
CUUAACCUCUGGAUCUACUGGGUUACGAUA | 0.143 ± 0.017
GAUUCCUCUGGAUCUACUGGGUUACCUAA | 0.21 ± 0.051
CUAUUCCUCUGGAUGUACUGGGUAACCUAA | 0.162 ± 0.034
GAAUUCCUCUGGUUCUACUGGGAUACCUAA | 0.288 ± 0.068
CUUAUCCUCUGGAACUACAGGGUUACCUAA | 0.252 ± 0.02
CUUAAGCAUCUGGAUCUACUGGGUUACCUAA | 0.254 ± 0.021
CUUAACCUCUGGAUCUACUGGGUUAGGAUA [g6:g25:cont:t1A] | 0.00593 ± 0.0036
CUUAUCCCUCUGGAUCUACUGGGUUACCUAA | 0.276 ± 0.035
CUAUUCCACUGGAUCUAGUGGGUUACCUAA | 0.261 ± 0.027
GAAUUCCUCACGAUCUACUGGGUUACCUAA | 0.697 ± 0.051
CUUAUCCUCUGGAUCUUCUGGGUUACCUUA | 0.289 ± 0.053
CUUAAGGAGUGGAUCUACAGGGUUACCAAA | 0.0077 ± 0.0031
CUUAACCUCUGGAUCUUCUGGGUUACCAAA | 0.0852 ± 0.012
CUUAAGGAGACCUAGUACUGGGUUACGAAA | < 0.0001
CUUAACGUCAGGAUCUACUGGGUUACCUAA | 0.136 ± 0.024
CUUAACCUCUGGAUCUACUGGGUUACGCUAA | 0.358 ± 0.027
CUUAUCCUCUGGAUCUACUGGGUUUGGUAA | 0.0961 ± 0.035
GAAUUCCUCUGGAUCUACUGGGUUAGGAAA | 0.238 ± 0.062
CUUUUCCUCUGGAUCUACUGCCAUACCUAA | 0.00387 ± 0.0029
CAAUUCCUCUGGAAGAACUGGGUUACCUAA | 0.211 ± 0.046
CUUAAGCUCAGGAUCAACUGGGUUACCUAA | 0.221 ± 0.025
CUUAUCCUCUGGAUCUACUGGGUAACCUAA | 0.228 ± 0.041
CUUAACCUCUGGAUCUACUGGGGUUACCUAA | 0.0194 ± 0.0046
CAAUUCCUCUGGAUCUACUGGGAUUACCUAA | 0.204 ± 0.045
